Assay results as given in PubChem BioAssay (Tox21).
Where “and” joins values, the source holds several entries; their conditions need not be identical. Equal entries are not always repeated. The shares of active, inactive and inconclusive entries below differ from those in the screen. For part of these data: Potencies of inconclusive entries are doubtful fits and often do not repeat. A structure can be active in one record and inactive in another. Calls of active or inactive are those of the source. Unless noted, calls follow the shape of the dose curve; as a rule, active = well fitted curve in the direction sought with a large enough effect in the repeat runs; inconclusive = weak or mixed curves; inactive = no such curve, though single readings can be large; an effect the other way counts as inactive or inconclusive.

Assays:
[1] = qHTS assay to identify small molecule antagonists of the TGF-beta/Smad signaling pathway (AID 1346924; active = well fitted inhibition curve with a large enough effect in the signal ratio in the repeat runs, not every such curve was filed as active; inconclusive = weak or mixed curves; the % refers to the signal ratio); conditions: SBE-bla HEK293T, TGF-beta/Smad reporter, beta-lactamase ratio; activity, negative = inhibition: at 76.8 µM (top of the series) unless noted
How it was run: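 SBE-bla HEK 293T cells were plated overnight, then received compound in DMSO plus TGF-beta1 (added as a 0.25 ng/mL solution) and were incubated 5 h at 37 C. Beta-lactamase reporter activity was read after 2 h at room temperature with LiveBLAzer B/G FRET substrate (ex 405, em 460/530 nm).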

[2] = biological target: Nuclear receptor subfamily 1 group I member 2 (Homo sapiens) (UniProt O75469); assay: Human pregnane X receptor (PXR) small molecule agonists, qHTS assay (AID 1346982); also: nearly all actives have a fitted effect of over 35% in size
How it was run: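 PXR-Luc HepG2 cells (CYP3A4 promoter-driven luciferase) were seeded in medium with 5% charcoal-stripped FBS, left 5 hr at 37 C, then exposed to compounds in DMSO for 24 hr. Luminescence was read after ONE-Glo addition.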

[3] = biological target: Nuclear receptor subfamily 1 group I member 2 (Homo sapiens) (UniProt O75469); assay: Human pregnane X receptor (PXR) activation by small molecules, qHTS assay (AID 1346985); also: nearly all actives have a fitted effect of over 40% in size; as to activation: % is scaled to controls: 0 for no effect and ±100 for the full control effect
How it was run: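 DPX-2 cells (HepG2 co-transfected with a PXR response element and a CYP3A4-promoter luciferase construct) were seeded at 2,000 per well, rested 5 hr at 37C, then exposed to DMSO-dissolved compounds for 24 hr. Activation was read as luciferase luminescence.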

[4] = biological target: Cytochrome P450 2D6 (Homo sapiens) (UniProt P10635); assay: Cytochrome P450 Family 2 Subfamily D Member 6 (CYP2D6) small molecule antagonists: luciferase reporter qHTS assay (AID 1671196); also: nearly all actives have a fitted effect of over 50% in size
Sequence of UniProt P10635 (P10635 whole entry, looked up): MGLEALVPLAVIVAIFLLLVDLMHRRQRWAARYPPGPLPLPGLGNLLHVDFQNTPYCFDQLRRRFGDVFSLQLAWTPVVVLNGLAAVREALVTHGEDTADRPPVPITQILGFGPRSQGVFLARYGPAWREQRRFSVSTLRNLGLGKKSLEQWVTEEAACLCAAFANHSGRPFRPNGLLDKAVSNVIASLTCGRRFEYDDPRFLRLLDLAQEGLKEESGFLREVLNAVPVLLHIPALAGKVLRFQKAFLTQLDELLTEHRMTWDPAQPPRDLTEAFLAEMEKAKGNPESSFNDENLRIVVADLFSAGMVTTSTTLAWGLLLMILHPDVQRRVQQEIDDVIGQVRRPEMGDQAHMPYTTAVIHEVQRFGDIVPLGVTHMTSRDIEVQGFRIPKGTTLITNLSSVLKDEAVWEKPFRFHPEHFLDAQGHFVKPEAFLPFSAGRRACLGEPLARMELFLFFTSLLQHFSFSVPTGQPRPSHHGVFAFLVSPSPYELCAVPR
How it was run: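 CYP2D6 enzyme–substrate mix was held with compound for 10 min at room temperature, then NADPH regeneration solution was added and the reaction ran 1 h at room temperature. Luciferin product was detected by luminescence after 20 min with detection reagent.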

[5] = biological target: Cytochrome P450 1A2 (Homo sapiens) (UniProt P05177); assay: Cytochrome P450 Family 1 Subfamily A Member 2 (CYP1A2) small molecule antagonists: luciferase reporter qHTS assay (AID 1671199); also: nearly all actives have a fitted effect of over 50% in size
Sequence of UniProt P05177 (P05177 whole entry, looked up): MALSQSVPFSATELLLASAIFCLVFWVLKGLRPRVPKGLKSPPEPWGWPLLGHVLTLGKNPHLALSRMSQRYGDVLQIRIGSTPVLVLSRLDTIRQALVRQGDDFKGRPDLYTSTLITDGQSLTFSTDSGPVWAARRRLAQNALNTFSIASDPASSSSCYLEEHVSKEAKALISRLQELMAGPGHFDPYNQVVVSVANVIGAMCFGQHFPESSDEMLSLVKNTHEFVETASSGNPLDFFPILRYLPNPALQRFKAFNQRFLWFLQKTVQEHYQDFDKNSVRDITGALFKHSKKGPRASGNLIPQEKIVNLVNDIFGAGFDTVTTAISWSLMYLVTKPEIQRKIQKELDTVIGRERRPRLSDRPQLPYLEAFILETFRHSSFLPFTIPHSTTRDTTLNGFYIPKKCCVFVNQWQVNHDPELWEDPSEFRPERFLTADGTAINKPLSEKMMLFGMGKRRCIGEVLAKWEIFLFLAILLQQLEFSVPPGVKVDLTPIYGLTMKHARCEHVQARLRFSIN
How it was run: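 Human CYP1A2 activity measured with a P450-Glo proluciferin substrate; compounds in DMSO preincubated 10 min at room temperature with enzyme-substrate mix, then NADPH regeneration system added for 1 h. Luciferin detection reagent, 20 min, luminescence read.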

[6] = Caspase-3/7 induction in CHO-K1 cells by small molecules, qHTS cell viability counter screen (AID 1346979); also: nearly all actives have a fitted effect of over 35% in size
How it was run: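 Cells (CHO-K1, wild type) are plated at 1,500 per well and incubated 5hr. Test compounds in DMSO are then pinned in, followed by 16hr at 37C and 5% CO2. Viability is read by CellTiter-Fluor fluorescence after 1hr.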

[7] = biological target: Cytochrome P450 2C19 (Homo sapiens) (UniProt P33261); assay: Cytochrome P450 Family 2 Subfamily C Member 19 (CYP2C19) small molecule antagonists: luciferase reporter qHTS assay (AID 1671197); also: nearly all actives have a fitted effect of over 65% in size
Sequence of UniProt P33261 (P33261 whole entry, looked up): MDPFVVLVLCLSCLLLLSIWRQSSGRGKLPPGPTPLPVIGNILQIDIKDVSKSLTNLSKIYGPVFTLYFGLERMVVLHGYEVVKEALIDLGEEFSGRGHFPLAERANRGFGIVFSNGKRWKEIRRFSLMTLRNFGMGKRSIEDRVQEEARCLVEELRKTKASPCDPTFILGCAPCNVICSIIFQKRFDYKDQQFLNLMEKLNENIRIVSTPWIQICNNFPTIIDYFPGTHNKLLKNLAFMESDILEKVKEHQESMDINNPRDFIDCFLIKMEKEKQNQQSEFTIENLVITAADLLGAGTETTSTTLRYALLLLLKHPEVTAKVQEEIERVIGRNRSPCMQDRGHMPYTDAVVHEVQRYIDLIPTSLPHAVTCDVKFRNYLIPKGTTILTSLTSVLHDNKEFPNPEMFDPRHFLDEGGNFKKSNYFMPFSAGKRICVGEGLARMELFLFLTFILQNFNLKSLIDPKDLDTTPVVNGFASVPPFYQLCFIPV
How it was run: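 First, compounds are pinned into enzyme-substrate mix and held 10 min at room temperature. Second, NADPH regeneration solution is added and plates incubate 1 h at 37C. Third, detection reagent is added and luminescence read after 20 min.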

[8] = biological target: Cytochrome P450 2C9 (Homo sapiens) (UniProt P11712); assay: Cytochrome P450 Family 2 Subfamily C Member 9 (CYP2C9) small molecule antagonists: luciferase reporter qHTS assay (AID 1671198); also: nearly all actives have a fitted effect of over 50% in size
Sequence of UniProt P11712 (P11712 whole entry, looked up): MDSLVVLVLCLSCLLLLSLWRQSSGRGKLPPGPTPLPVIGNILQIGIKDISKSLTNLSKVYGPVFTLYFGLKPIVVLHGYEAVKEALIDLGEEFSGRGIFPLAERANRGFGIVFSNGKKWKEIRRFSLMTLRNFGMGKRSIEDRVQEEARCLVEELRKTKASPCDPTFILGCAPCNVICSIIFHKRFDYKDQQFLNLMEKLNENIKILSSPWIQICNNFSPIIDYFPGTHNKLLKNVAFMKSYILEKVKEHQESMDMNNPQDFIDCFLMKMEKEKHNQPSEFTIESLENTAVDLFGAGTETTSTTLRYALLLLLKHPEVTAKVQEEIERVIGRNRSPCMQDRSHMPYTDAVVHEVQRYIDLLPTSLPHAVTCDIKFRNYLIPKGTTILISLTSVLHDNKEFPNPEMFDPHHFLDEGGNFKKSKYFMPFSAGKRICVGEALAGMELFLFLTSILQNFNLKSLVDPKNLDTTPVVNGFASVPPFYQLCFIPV
How it was run: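 P450-Glo proluciferin substrate with CYP2C9 enzyme; 10 min RT preincubation, then NADPH regeneration 1 h at 37C; luciferin detection reagent 20 min RT, luminescence in relative luminescence units.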

[9] = Caspase-3/7 induction in HepG2 cells by small molecules, qHTS cell viability counter screen (AID 1346981); also: nearly all actives have a fitted effect of over 30% in size
How it was run: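 Wild-type HepG2 cells (2,000/well) were allowed to settle for 5 hr at 37 C, 5% CO2, then dosed with compounds in DMSO by pin transfer. After 16 hr at 37 C, CellTiter-Fluor was added and fluorescence read 1 hr later.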

[10] = biological target: Cytochrome P450 3A4 (Homo sapiens) (UniProt P08684); assay: Cytochrome P450 Family 3 Subfamily A Member 4 (CYP3A4) small molecule antagonists: luciferase reporter qHTS assay (AID 1671201); also: nearly all actives have a fitted effect of over 50% in size
Sequence of UniProt P08684 (P08684 whole entry, looked up): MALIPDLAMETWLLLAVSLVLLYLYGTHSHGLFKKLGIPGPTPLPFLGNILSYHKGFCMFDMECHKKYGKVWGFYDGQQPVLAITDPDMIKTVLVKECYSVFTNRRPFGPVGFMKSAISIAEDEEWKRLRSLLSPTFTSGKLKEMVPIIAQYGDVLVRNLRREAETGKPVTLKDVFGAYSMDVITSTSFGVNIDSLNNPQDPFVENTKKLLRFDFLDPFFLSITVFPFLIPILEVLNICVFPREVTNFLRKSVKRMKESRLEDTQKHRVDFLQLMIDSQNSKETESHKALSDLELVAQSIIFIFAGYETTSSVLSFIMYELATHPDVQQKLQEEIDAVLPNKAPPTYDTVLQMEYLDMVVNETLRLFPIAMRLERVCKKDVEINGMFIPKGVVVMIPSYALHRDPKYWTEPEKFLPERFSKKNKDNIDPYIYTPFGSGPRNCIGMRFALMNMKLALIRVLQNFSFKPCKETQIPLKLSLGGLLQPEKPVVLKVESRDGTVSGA
How it was run: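 Compounds in DMSO were pin-transferred onto CYP3A4 enzyme-substrate mix and held 10 min at room temperature. NADPH regenerating solution started the reaction for 1 h; luciferin detection reagent stopped it, and luminescence was read after 20 min.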

[11] = biological target: Nuclear receptor subfamily 1 group I member 2 (Homo sapiens) (UniProt O75469); assay: CYP3A4 induction through human pregnane X receptor (PXR) by small molecules, qHTS assay (AID 1346984); also: nearly all actives have a fitted effect of over 40% in size
How it was run: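 DPX-2 cells (HepG2 co-transfected with PXR and CYP3A4 promoter-luciferase) treated with compounds 24 h at 37C; luciferin-IPA CYP3A4 substrate 3uM final added for 3 h, then One-Glo; luminescence read. qHTS format.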

[12] = biological target: Voltage-gated inwardly rectifying potassium channel KCNH2 (Homo sapiens) (UniProt Q12809); assay: Human Ether-a-go-go-Related Gene (hERG) channel small molecule antagonists: fluorescence cell-based qHTS assay (AID 1671200); also: nearly all actives have a fitted effect of over 50% in size
Sequence of UniProt Q12809 (Q12809 whole entry, looked up): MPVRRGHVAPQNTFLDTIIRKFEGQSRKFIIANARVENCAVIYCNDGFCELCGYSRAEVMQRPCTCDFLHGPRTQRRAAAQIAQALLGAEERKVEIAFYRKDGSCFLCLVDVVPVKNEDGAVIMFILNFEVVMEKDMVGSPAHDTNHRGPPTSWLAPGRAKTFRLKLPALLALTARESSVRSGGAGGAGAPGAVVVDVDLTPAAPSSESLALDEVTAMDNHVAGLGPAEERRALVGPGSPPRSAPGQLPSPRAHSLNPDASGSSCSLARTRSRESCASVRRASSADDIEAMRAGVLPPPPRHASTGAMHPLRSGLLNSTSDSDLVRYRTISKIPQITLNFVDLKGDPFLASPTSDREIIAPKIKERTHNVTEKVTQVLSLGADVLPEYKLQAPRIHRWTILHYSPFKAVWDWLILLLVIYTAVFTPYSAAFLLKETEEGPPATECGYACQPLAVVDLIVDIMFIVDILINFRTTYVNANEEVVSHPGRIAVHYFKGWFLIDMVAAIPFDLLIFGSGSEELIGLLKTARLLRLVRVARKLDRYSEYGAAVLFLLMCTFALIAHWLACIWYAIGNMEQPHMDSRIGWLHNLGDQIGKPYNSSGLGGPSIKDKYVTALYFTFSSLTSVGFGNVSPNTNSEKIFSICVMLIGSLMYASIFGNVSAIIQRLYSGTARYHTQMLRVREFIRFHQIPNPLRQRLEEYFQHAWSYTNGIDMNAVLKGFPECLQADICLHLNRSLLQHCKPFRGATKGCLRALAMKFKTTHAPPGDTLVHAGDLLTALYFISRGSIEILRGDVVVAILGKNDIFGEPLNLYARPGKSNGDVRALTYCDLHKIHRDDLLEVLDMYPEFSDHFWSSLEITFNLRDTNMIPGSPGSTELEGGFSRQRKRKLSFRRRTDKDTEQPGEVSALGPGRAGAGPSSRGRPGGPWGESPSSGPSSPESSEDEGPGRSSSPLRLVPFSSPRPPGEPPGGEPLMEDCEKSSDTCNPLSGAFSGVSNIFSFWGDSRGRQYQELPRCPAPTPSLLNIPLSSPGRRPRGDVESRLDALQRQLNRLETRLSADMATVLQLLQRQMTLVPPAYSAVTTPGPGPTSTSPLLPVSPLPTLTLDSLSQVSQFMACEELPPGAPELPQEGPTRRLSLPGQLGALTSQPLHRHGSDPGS
How it was run: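 Channel function was assessed by thallium flux. Cells seeded the previous day and kept at 37 C took up FluxOR II dye over 1 h in the dark at room temperature, then sat another 10 min before stimulation.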
Potency is read from the fitted curve at half-maximal effect; tags tell the direction and shape of the fitted curve or compound fluorescence and quenching.

## CC(C(=O)O)c1ccc(-c2ccccc2)c(F)c1 (configuration not stated)
[1]
  activity, negative = inhibition: inconclusive: 0.604%
[2]
  Potency: inconclusive: 19.3 µM [activator, partial curve]
[3]
  Potency: inactive
[4]
  Potency: inconclusive: 39.9 µM [inhibitor, partial curve]
[5]
  Potency: inconclusive: 71 µM [inhibitor, partial curve, poor fit]

## O=[N+]([O-])c1ccc(O/N=C/c2cc(Br)c(O)c(Br)c2)c([N+](=O)[O-])c1
[1]
  activity, negative = inhibition: inconclusive: -12.1%
[2]
  Potency: inconclusive: 68.2 µM [activator, single point]

## COc1ccccc1O
[1]
  activity, negative = inhibition: inconclusive: 0.226%
[6]
  Potency: inconclusive: 69.1 µM [rising, partial curve, poor fit]
[2]
  Potency: inconclusive: 19.4 µM [activator, partial curve]
[7]
  Potency: inconclusive: 78 µM [inhibitor] and inconclusive: 89.9 µM [inhibitor, single point]
[8]
  Potency: inconclusive: 80.4 µM [inhibitor, single point]
[5]
  Potency: inconclusive: 39.1 µM [inhibitor, partial curve]

## CCCCCC(CC)OC(=O)CCCOc1ccc(Cl)cc1Cl (configuration not stated)
[1]
  Potency: inconclusive: 54.8 µM [fluorescent]
[9]
  Potency: inconclusive: 30.5 µM [rising, single point]
[8]
  Potency: active: 28.2 µM

## CCCCCCCCCCCCCCCCOP(=O)([O-])OCC[N+](C)(C)C
[1]
  activity, negative = inhibition: inconclusive: -6.87% [at 35.3 µM]
[6]
  Potency: inactive
[4]
  Potency: inconclusive: 38.9 µM [inhibitor, single point]
[8]
  Potency: inactive
[5]
  Potency: inconclusive: 27.5 µM [inhibitor, partial curve]

## CCO[Si](CCCSSSSCCC[Si](OCC)(OCC)OCC)(OCC)OCC
[1]
  Potency: inconclusive: 49 µM
[6]
  Potency: inconclusive: 68.7 µM [cytotoxic, single point]
[4]
  Potency: active: 35.6 µM
[5]
  Potency: active: 71.1 µM

## CCC(=O)OCc1ccc(OC)cc1
[1]
  activity, negative = inhibition: inconclusive: 28.6%
[9]
  Potency: inconclusive: 28 µM [rising, single point]
[8]
  Potency: inconclusive: 64.9 µM [inhibitor, partial curve]

## Nc1nc(Cl)cc(Cl)n1
[1]
  Potency: inconclusive: 55 µM [fluorescent, partial curve, poor fit]
[6]
  Potency: inconclusive: 77 µM [cytotoxic, partial curve, poor fit]
[8]
  Potency: inactive
[5]
  Potency: inconclusive: 44.8 µM [inhibitor, partial curve]

## O=C(O)c1cccc(N(Cc2cccnc2)c2ccc(OC(F)F)c(OC(F)F)c2)c1
[1]
  Potency: inconclusive: 6.92 µM [fluorescent]
[6]
  Potency: active: 68.6 µM
[4]
  Potency: inconclusive: 39.9 µM [inhibitor, partial curve]
[5]
  Potency: inconclusive: 63.3 µM [inhibitor, partial curve]

## Cc1ccc2oc(=O)ccc2c1
[1]
  activity, negative = inhibition: inconclusive: 1.78%
[6]
  Potency: inconclusive: 62.9 µM [rising, partial curve, poor fit]
[4]
  Potency: inactive

## c1ccc(Nc2ccccc2)cc1
[1]
  activity, negative = inhibition: inconclusive: -8.91%
[6]
  Potency: inconclusive: 68.6 µM [cytotoxic, single point]
[4]
  Potency: inconclusive: 63.3 µM [inhibitor, partial curve]

## Cc1ccc2oc(CN(Cc3ccccc3)C(=O)Nc3c(F)cc(F)cc3F)c(-c3ccc(Cl)cc3)c2c1
[1]
  Potency: inconclusive: 5.97 µM [rising, partial curve]
[6]
  Potency: inconclusive: 47 µM [cytotoxic, partial curve]
[5]
  Potency: active: 54.6 µM
[10]
  Potency: active: 2.44 µM

## CN(Cc1ccc(C(C)(C)C)cc1)Cc1cccc2ccccc12
[1]
  activity, negative = inhibition: inconclusive: -29.3% [at 35.3 µM]
[2]
  Potency: inconclusive: 10.6 µM [activator, partial curve, poor fit]
[11]
  Potency: inconclusive: 12.6 µM [activator, single point]
[3]
  Potency: inconclusive: 7.94 µM [activator, partial curve, poor fit]
[8]
  Potency: inconclusive: 15.5 µM [inhibitor, partial curve]
[5]
  Potency: inconclusive: 25.7 µM [inhibitor, partial curve]

## Cc1cccc(N(C)C(=S)Oc2ccc3ccccc3c2)c1
[1]
  activity, negative = inhibition: inconclusive: -43.3%
[6]
  Potency: inconclusive: 77 µM [cytotoxic, single point]
[11]
  Potency: active: 5.01 µM
[5]
  Potency: active: 10 µM and active: 9.77 µM
[12]
  Potency: inconclusive: 17.4 µM [inhibitor, partial curve] and inconclusive: 23.9 µM [inhibitor, partial curve, poor fit]
